Experimental findings from doi:10.1101/2023.05.26.542386 (bioRxiv, 2023) are described below.

Assay [1] deals with T1, mCD86 Fc (human IgG1) chimera (mouse, UniProt P42082 24-244).
T1 sequence (looked up): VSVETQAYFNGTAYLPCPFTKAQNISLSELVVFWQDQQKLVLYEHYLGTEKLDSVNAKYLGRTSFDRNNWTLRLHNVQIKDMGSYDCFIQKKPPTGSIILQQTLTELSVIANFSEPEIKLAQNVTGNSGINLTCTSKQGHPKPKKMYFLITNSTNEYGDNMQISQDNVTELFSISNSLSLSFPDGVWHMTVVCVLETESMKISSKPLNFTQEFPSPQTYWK
In words: pull-down.

The target of assay [2] is T2, mCD80 Fc (human IgG1) chimera (mouse, UniProt Q00609 38-246).
T2 sequence (looked up): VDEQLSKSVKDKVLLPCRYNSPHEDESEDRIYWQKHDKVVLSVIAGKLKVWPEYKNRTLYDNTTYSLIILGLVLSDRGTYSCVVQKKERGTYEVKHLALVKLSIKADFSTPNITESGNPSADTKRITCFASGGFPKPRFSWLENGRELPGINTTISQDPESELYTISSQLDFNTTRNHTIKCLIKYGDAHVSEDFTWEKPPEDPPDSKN
Kind of assay: pull-down.

B1: mCD152/Fc (CTLA4-Ig, mouse IgG2a, non-cytolytic) chimera (Fc fusion)
chain: not shown
For the molecule B1, the binding result in assay [1] and in assay [2] was “binds” throughout.
